{
  "source": "the supplement of paper PMC8512760",
  "note": "The other results are listed elsewhere or left out. Single values are uncertain, as repeats are few or missing.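 Note: stably firefly luciferase-GFP labeled cells in 96-well plates, viability read as luciferase photon flux after d-luciferin addition, treated wells normalized to vehicle wells, single-dose high-throughput screen.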",
  "data": [
    {"system": "SUM-149", "test": "cell viability relative to vehicle (% of vehicle); basal-like triple-negative breast cancer lines; higher = less cytotoxic", "details": "10 µM; 72 h", "values": [
      {"compound": "CN(Cc1ccc(C(C)(C)C)cc1)Cc1cccc2ccccc12.Cl", "note": "[Butenafine HCl]", "cell viability": 108},
      {"compound": "CCCCc1ncc(C=C(Cc2cccs2)C(=O)O)n1Cc1ccc(C(=O)O)cc1.CS(=O)(=O)O", "note": "[Eprosartan Mesylate]", "cell viability": 130},
      {"compound": "Clc1ccc(C(c2ccccc2Cl)C(Cl)Cl)cc1", "note": "(stereo not given) [Mitotane (Lsodren)]", "cell viability": 105},
      {"compound": "COc1ccc2cc([C@H](C)C(=O)[O-])ccc2c1.[Na+]", "note": "[Naproxen Sodium]", "cell viability": 101},
      {"compound": "CCC1OC(=O)CC(O)C(C)C(OC2OC(C)C(O)C(N(C)C)C2O)C(CCN2CC(C)CC(C)C2)CC(C)C(=O)C=CC(C)=CC1COC1OC(C)C(O)C(OC)C1OC", "note": "(stereo not given) [Tilmicosin]", "cell viability": 86.8},
      {"compound": "O=c1c(-c2ccc(O)cc2)coc2cc(O)cc(O)c12", "note": "[Genistein]", "cell viability": 138},
      {"compound": "COC(=O)C(Cc1ccccc1)NC(=O)C(N)CC(=O)O", "note": "(stereo not given) [Aspartame]", "cell viability": 123},
      {"compound": "COc1ccc(CC2c3cc(OC)c(OC)cc3CC[N+]2(C)CCC(=O)OCCCCCOC(=O)CC[N+]2(C)CCc3cc(OC)c(OC)cc3C2Cc2ccc(OC)c(OC)c2)cc1OC.O=S(=O)([O-])c1ccccc1.O=S(=O)([O-])c1ccccc1", "note": "(stereo not given) [Atracurium Besylate]", "cell viability": 108},
      {"compound": "CSc1nc2cc(Oc3cccc(Cl)c3Cl)c(Cl)cc2[nH]1", "note": "[Triclabendazole]", "cell viability": 116},
      {"compound": "CCCc1nc(C(C)(C)O)c(C(=O)O)n1Cc1ccc(-c2ccccc2-c2nn[nH]n2)cc1", "note": "[Olmesartan]", "cell viability": 137},
      {"compound": "CCCCCCCCCCCCCCCCOP(=O)([O-])OCC[N+](C)(C)C", "note": "[Miltefosine]", "cell viability": 94},
      {"compound": "CC(C)(C)c1cc(NC(=O)Nc2ccc(-c3cn4c(n3)sc3cc(OCCN5CCOCC5)ccc34)cc2)no1", "note": "[Quizartinib (AC220)]", "cell viability": 56.1},
      {"compound": "CC(C)NCC(O)COc1ccc(CCOCC2CC2)cc1.Cl", "note": "(stereo not given) [Levobetaxolol HCl]", "cell viability": 102},
      {"compound": "C=C1C(=CC=C2CCCC3(C)C2CCC3C(C)C=CC(C)C(C)C)CC(O)CC1O", "note": "(stereo not given) [Doxercalciferol]", "cell viability": 78.4},
      {"compound": "CCCC(=O)OCOC(=O)C1=C(C)NC(C)=C(C(=O)OC)C1c1cccc(Cl)c1Cl", "note": "(stereo not given) [Clevidipine Butyrate]", "cell viability": 108},
      {"compound": "NC(CSCCCO)C(=O)O", "note": "(stereo not given) [Fudosteine]", "cell viability": 83.4},
      {"compound": "Cc1cc(C(C)(C)C)cc(C)c1CC1=NCCN1.Cl", "note": "[Xylometazoline HCl]", "cell viability": 91.3},
      {"compound": "Cc1cc(=O)[nH]c(=S)[nH]1", "note": "[Methylthiouracil]", "cell viability": 105},
      {"compound": "C[N+]1(C)[C@@H]2C[C@@H](OC(=O)C(O)(c3cccs3)c3cccs3)C[C@H]1[C@@H]1O[C@@H]12.[Br-]", "note": "[Tiotropium Bromide]", "cell viability": 105},
      {"compound": "CNC1CCC(c2ccc(Cl)c(Cl)c2)c2ccccc21.Cl", "note": "(stereo not given) [Sertraline HCl]", "cell viability": 45.8},
      {"compound": "COc1cc(Nc2ncc(F)c(Nc3ccc4c(n3)N(COP(=O)(O)O)C(=O)C(C)(C)O4)n2)cc(OC)c1OC", "note": "[Fostamatinib (R788)]", "cell viability": 30.9},
      {"compound": "C1N2CN3CN1CN(C2)C3", "note": "[Methenamine]", "cell viability": 104},
      {"compound": "CC(C)(C#N)c1cc(Cn2cncn2)cc(C(C)(C)C#N)c1", "note": "[Anastrozole]", "cell viability": 170},
      {"compound": "CCCCCCNC(=O)n1cc(F)c(=O)[nH]c1=O", "note": "[Carmofur]", "cell viability": 69.8},
      {"compound": "Cc1cc(NS(=O)(=O)c2ccc(N)cc2)no1", "note": "[Sulfamethoxazole]", "cell viability": 111},
      {"compound": "CC12C=CC(=O)C=C1CCC1C2C(=O)CC2(C)C1CCC2(O)C(=O)CO", "note": "(stereo not given) [Prednisone]", "cell viability": 115},
      {"compound": "CC(O)C1C(=O)N2C(C(=O)O)=C(SC3CNC(C(=O)N(C)C)C3)C(C)C12", "note": "(stereo not given) [Meropenem]", "cell viability": 93.9},
      {"compound": "CCN(CC)CCOc1ccc(C(=C(Cl)c2ccccc2)c2ccccc2)cc1.O=C(O)CC(O)(CC(=O)O)C(=O)O", "note": "[Clomiphene citrate]", "cell viability": 92.4},
      {"compound": "C#Cc1cccc(Nc2ncnc3cc(OC)c(OCCCCCCC(=O)NO)cc23)c1", "cell viability": 123},
      {"compound": "CS(=O)(=O)Nc1ccc([N+](=O)[O-])cc1Oc1ccccc1", "note": "[Nimesulide]", "cell viability": 124},
      {"compound": "O=C(NCCN1CCOCC1)c1ccc(Cl)cc1", "cell viability": 106},
      {"compound": "CNC(=O)c1cc(Oc2ccc(NC(=O)Nc3ccc(Cl)c(C(F)(F)F)c3)cc2)ccn1", "note": "[Sorafenib]", "cell viability": 88.5},
      {"compound": "Cc1nnc(NS(=O)(=O)c2ccc(N)cc2)s1", "note": "[Sulfamethizole]", "cell viability": 96.5},
      {"compound": "Clc1ccc(COC(Cn2ccnc2)c2ccc(Cl)cc2Cl)c(Cl)c1.O=[N+]([O-])O", "note": "(stereo not given) [Miconazole Nitrate]", "cell viability": 117},
      {"compound": "CC(O)C1C(=O)N2C(C(=O)O)=C(SC3CNC(CNS(N)(=O)=O)C3)C(C)C12", "note": "(stereo not given) [Doripenem]", "cell viability": 109},
      {"compound": "N#CC(c1ccc(Cl)cc1)c1c(Cl)cc(-n2ncc(=O)[nH]c2=O)cc1Cl", "note": "(stereo not given) [Diclazuril]", "cell viability": 133},
      {"compound": "N#CC(=C1SCC(c2ccc(Cl)cc2Cl)S1)n1ccnc1", "note": "(stereo not given) [Luliconazole]", "cell viability": 131},
      {"compound": "CCCCc1nc(Cl)c(CO)n1Cc1ccc(-c2ccccc2-c2nnn[n-]2)cc1.[K+]", "note": "[Losartan Potassium (DuP 753)]", "cell viability": 109},
      {"compound": "Nc1ccc(C(=O)NCC(=O)[O-])cc1.[Na+]", "note": "[Sodium 4-amiropparaty Hyalrate]", "cell viability": 131},
      {"compound": "COc1cc2nc(N(C)CCCNC(=O)C3CCCO3)nc(N)c2cc1OC.Cl", "note": "(stereo not given) [Alfuzosin HCl]", "cell viability": 104}
    ]}
  ]
}
